Measurements taken from article PMC4336329 (PLoS ONE, 2015).
The campaign covered roughly 310,000 compounds. About 14,000 (4.5%) showed an effect of 50% or more. Effects have a minus sign here. This is one part of the list.

Molecular target: human ether-à-go-go-related gene (hERG) potassium channel (human, UniProt Q12809)
Test: primary screen, population patch clamp on CHO cells stably expressing hERG
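Note: peak tail current of the secondary pulse compared with the same well before compound.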

Chain of human ether-à-go-go-related gene (hERG) potassium channel (Q12809 whole entry, looked up): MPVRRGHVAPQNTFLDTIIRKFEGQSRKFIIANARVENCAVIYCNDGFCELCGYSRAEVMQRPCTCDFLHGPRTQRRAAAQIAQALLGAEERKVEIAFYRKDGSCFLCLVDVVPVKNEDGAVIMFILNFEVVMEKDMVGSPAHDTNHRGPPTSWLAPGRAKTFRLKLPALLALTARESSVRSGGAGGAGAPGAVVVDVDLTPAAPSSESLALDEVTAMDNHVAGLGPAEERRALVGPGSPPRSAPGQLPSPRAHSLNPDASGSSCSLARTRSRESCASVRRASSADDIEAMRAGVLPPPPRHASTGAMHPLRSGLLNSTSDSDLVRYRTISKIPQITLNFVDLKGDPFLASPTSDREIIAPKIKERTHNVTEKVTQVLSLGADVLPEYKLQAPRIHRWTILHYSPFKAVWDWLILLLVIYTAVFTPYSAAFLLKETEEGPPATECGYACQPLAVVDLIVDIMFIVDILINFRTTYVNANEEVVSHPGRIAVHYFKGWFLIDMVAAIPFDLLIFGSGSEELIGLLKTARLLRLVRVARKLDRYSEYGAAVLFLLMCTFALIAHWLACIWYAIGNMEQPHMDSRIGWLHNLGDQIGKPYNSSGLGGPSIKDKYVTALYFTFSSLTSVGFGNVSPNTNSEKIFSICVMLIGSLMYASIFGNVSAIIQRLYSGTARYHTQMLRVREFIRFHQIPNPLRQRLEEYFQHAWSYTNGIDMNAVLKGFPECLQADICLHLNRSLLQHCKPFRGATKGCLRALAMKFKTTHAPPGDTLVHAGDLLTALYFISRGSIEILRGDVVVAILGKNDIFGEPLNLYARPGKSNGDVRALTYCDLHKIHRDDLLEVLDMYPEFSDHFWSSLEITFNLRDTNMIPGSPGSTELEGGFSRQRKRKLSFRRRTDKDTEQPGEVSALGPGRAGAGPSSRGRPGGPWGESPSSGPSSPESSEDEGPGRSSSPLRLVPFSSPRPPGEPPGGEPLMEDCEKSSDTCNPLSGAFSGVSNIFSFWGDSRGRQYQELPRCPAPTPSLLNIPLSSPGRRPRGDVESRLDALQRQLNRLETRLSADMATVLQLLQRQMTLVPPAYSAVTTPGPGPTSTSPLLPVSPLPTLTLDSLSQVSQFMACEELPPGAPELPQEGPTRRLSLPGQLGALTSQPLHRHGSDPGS

SMILES	hERG current change (%, negative = inhibition) at 10uM [%]
CCc1cccc(CC)c1-n1c(-c2cccnc2)n[nH]c1=S	18.1
CC(=O)Nc1ccc(NC(=O)CCn2nnc3ccccc32)cc1	-2.54
O=C(CCCCn1c(=O)c2ccccc2n(Cc2ccccc2)c1=O)NC1CCN(Cc2ccccc2)CC1	-67.9
Oc1cccc(Nc2ccccc2)c1	12.1
Cc1cc(C(=O)N/N=C/c2cc([N+](=O)[O-])ccc2O)c2ccccc2n1	6.35
CCCCCN1CC(O)=C(c2ccccc2)C1=N	3.99
COc1cc(CC(=O)OCC(=O)N2C(C)CCCC2C)cc(OC)c1OC (stereo not drawn)	21
CC(=O)c1cccc(NC(=O)c2ccc(N(Cc3ccccc3C)S(C)(=O)=O)cc2)c1	-13.5
O=C(O)Cc1ccc(NC(=O)C(c2ccccc2)c2ccccc2)cc1	34.8
COc1cccc(COC(=O)Nc2ccccc2F)c1	-13.1
Cc1cc(C)n2c(SCc3cccs3)nnc2n1	-8.91
C=CCn1c(O)c(C(C)=NCCCn2ccnc2)c(=O)[nH]c1=O	9.21
CCN1CCCC1CNC(=S)Nc1ccc(C(C)=O)cc1 (stereo not drawn)	5.4
CC(C(O)c1cc(=O)c(OCc2ccccc2)co1)[N+](=O)[O-] (stereo not drawn)	14.5
Cc1ccc(-c2noc(CN(C(=O)C(c3ccccc3)c3ccccc3)C(C)C)n2)cc1	9.75
COc1ccc(-c2nn(-c3ccccc3)cc2C(N)=O)cc1OC	6.12
Oc1c(C=Nc2cccc3nsnc23)ccc2ccccc12	23.8
COc1ccccc1N1CCN(C(=O)c2ccc(Br)s2)CC1.Cl	-46.3
Cc1cc(C(=O)N2CCN(c3ccccc3O)CC2)c(C)o1	-16.9
O=C(CSc1ncn[nH]1)N1N=C2/C(=C/c3ccco3)CCCC2C1c1ccco1 (stereo not drawn)	-22
O=C(CCn1nnc2ccccc21)N1CCN(c2ccccc2)CC1	0.88
Cc1c(OC(C)C(=O)NC2CC(C)(C)NC(C)(C)C2)ccc2c3c(c(=O)oc12)CCC3 (stereo not drawn)	12.5
Cc1cccc(CN2CCN(CC(=O)NCc3cccs3)C2=O)c1	-13.8

SMILES	hERG current change (%, negative = inhibition) at 10uM [%]
Cn1c(CNC(=O)c2ccccc2F)nnc1SCC(=O)c1ccccc1	6.09
C=CCn1c(-c2csc(-c3ccc(OC)c(OC)c3)n2)n[nH]c1=S	16.2
COc1ccccc1/C=C/C(=O)NCC(=O)N1CCC(N(C)C2CCCC2)CC1	-35
Cc1ccc(CS(=O)Cc2ccc(C(=O)NC3CCCC(C)C3C)o2)cc1 (stereo not drawn)	-25.8
Cn1nccc1C(=O)N1CCN(c2cccc(C(F)(F)F)c2)CC1	-4.26
CC(=O)N1CCN(c2ccc(NCc3ccccc3)cc2)CC1	5.25
Cc1ccc(C(=O)N/C(=C\c2cn(S(=O)(=O)N(C)C)c3ccccc23)C(=O)N2CCCC2)cc1	7.23
CC(C)(C)c1cc(S(=O)(=O)CCc2ccccn2)cc(C(C)(C)C)c1F	-5.4
Cc1ccc(OCC(=O)Nc2ccccc2C(=O)NC2CC2)cc1C	5.8
Cc1nn(CC(C)C)c(Cl)c1C(=O)N(C)CC(=O)Nc1c(Cl)cccc1Cl	13.1
COc1ccc(C2=NN(c3nc(C(=O)O)cs3)C(O)(C(F)(F)F)C2)c(OC)c1 (stereo not drawn)	24.1
CC(CC(=O)NCCc1ccc(Cl)cc1)S(=O)(=O)c1ccc2c(c1)NC(=O)CO2 (stereo not drawn)	-34
CCNc1nnc(CCn2nc(C)c(Br)c2C)s1	-0.377
Cc1ccc2c(Cl)c(C(=O)NCc3cccnc3)sc2c1	-46.4
O=C(NCc1ccc2c(c1)OCO2)c1cc2c(s1)CS(=O)(=O)C2	7.44
CNc1cc(F)nc(F)n1	16.1
CC1C=CCC2C(=O)N(c3cc(Cl)ccc3O)C(=O)C12 (stereo not drawn)	7.35
COc1cc(CNc2ccc(N3CCN(C(C)=O)CC3)cc2)ccc1OCc1ccc(F)cc1	-1.25
Cc1oc2c(C)c3oc(=O)c4c(c3cc2c1C)CCCC4	3.64
O=C(c1cccc(F)c1)N1CCN(Cc2ccco2)CC1	4.78
CC(=O)c1ccc2c(c1)OCCOCCOCCOCCO2	-49.3
Nc1nnc(SCC(=O)OCc2ccc(F)cc2)s1	8.09
Cc1c(N(C)C(=O)C23CC4CC(CC(C4)C2)C3)c(=O)n(-c2ccccc2)n1C	-1.09

SMILES	hERG current change (%, negative = inhibition) at 10uM [%]
CN1CCc2c(n(CC(O)CN(CCO)CCO)c3ccccc23)C1=O.Cl (stereo not drawn)	6.94
COc1ccc(NC(=S)NC(C)C(c2ccccc2)N2CCOCC2)cc1 (stereo not drawn)	7.52
CC(C)(C)C(=O)OCC12CCC(O1)C1(C)C(=O)OCC21 (stereo not drawn)	35.2
COC(=O)NC1CSCC1OC(=O)CCN1C(=O)c2ccccc2C1=O (stereo not drawn)	-1.52
CCCc1nnc(SCC(=O)N2CCCC(C)C2)n1CCCOC (stereo not drawn)	22.8
Cc1cc(C(C)(C)C)ccc1OCCCCN1CCCC1	-40
Cc1ccc(C)c(-n2nnnc2SCC(=O)Nc2c(C)n(C)n(-c3ccccc3)c2=O)c1	3.24
Cl.O=C(Cc1ccccc1)OCCN1CCCCC1	-0.594
O=C(Nc1ncc(Cc2cccc(Cl)c2)s1)C1=NCCN1	5.01
COCCN1CN(S(=O)(=O)c2ccc(Cl)cc2)c2nc3ccccc3nc21	-75.9
COc1ccccc1OCC(O)CO (stereo not drawn)	12.4
Cc1cccc(N2C(=O)C(CC(=O)Nc3cccc(F)c3)N(CCc3ccncc3)C2=O)c1 (stereo not drawn)	-43.6
Cc1cc(-c2ccccc2)nc2oc3c(c12)NC(=O)CN(c1ccccc1)C3=O	-3.26
CS(=O)(=O)N(CCCC(=O)N1CCCCCC1)c1cccc(Cl)c1	-0.119
Cc1cccc(Cc2nnc(NC(=O)c3cccc(S(=O)(=O)N4CCOCC4)c3)s2)c1	16.2
CC(C)(C)c1ccc(CN2N=Nc3ccccc3S2(=O)=O)cc1	5.56
Cc1ccc(Cn2c(CN3CC(C)OC(C)C3)nc3c2c(=O)n(C)c(=O)n3C)cc1 (stereo not drawn)	-18
CC1Cc2ccccc2N1C(=O)COC(=O)C1=COCCO1 (stereo not drawn)	-7.1
CCOC(=O)C1CCN(C(=O)c2cccc(S(=O)(=O)N(CC)c3ccccc3)c2)CC1	-39
O=C(/C=C/c1ccccc1)NC(N1CCOCC1)C(Cl)(Cl)Cl (stereo not drawn)	4.31
Oc1ccc2ccccc2c1N=Nc1ccccc1F	4.15
COc1cc(NC(=O)C(=O)NNC(=O)C2CCCCC2)c(OC)cc1Cl	-2.85
CNS(=O)(=O)c1cccc(C(=O)OCC(=O)NCCCc2ccccc2)c1	-5.42

SMILES	hERG current change (%, negative = inhibition) at 10uM [%]
c1ccc2[nH]c(CSc3ncnc4c3oc3ccccc34)nc2c1	-21.4
CCCCn1ccc(=O)c2c(C(F)(F)F)nccc21	-8.94
COc1cccc(NC(=O)COC(=O)CCn2c(C)csc2=O)c1	11.3
COc1ccc(CCNc2ccc(S(=O)(=O)N3CCN(C)CC3)cc2[N+](=O)[O-])cc1	-6.46
CCOC(=O)N1CCN(C(=O)c2c[nH]c3ccc(S(=O)(=O)N(C)c4ccc(F)cc4)cc3c2=O)CC1	2.03
Cc1cccc(N2CC(C(=O)Nc3ccccc3N3CCCC3)CC2=O)c1C (stereo not drawn)	-17.1
COCc1cc(C)nc(SCC(=O)NCc2ccco2)c1C#N	-3.28
COc1ccccc1NC(=O)Cc1noc(CSc2nnc(C)n2C)n1	3.75
O=C(CCc1nc(-c2ccccc2Cl)no1)NCC1CCCO1 (stereo not drawn)	1.85
N#Cc1c(NC(NC(=O)c2ccco2)C(=O)c2ccccc2)sc2c1CCCC2 (stereo not drawn)	1.5
CCOC(=O)C1=C(C)NC(C)=C(C(=O)OCC)C1C(=O)OCC(=O)N(C)C	12.2
COc1cccc(C2=NOC(C(=O)N3CCOCC3)C2)c1 (stereo not drawn)	-16.9
COc1ccc(NC(=O)CN(C)S(=O)(=O)c2ccc(Br)s2)cc1OC	13.2
N/C(=N/OC(=O)c1ccccc1Cl)c1ncc([N+](=O)[O-])s1	19.5
Cc1ccc(C2CC(c3ccc(NS(C)(=O)=O)cc3)=NN2C(=O)c2ccco2)cc1 (stereo not drawn)	-78.5
COCCCNC(=O)c1c[nH]c2ccc(S(=O)(=O)N3CCc4ccccc43)cc2c1=O	14.6
C=C(C)COc1ccc(-c2ncnc(C(F)(F)F)c2-c2ccc(OC)cc2)c(O)c1	16.3
CCOC(=O)C(NC(=O)c1cccc(Cl)c1)(Nc1nnc(C)s1)C(F)(F)F (stereo not drawn)	8.54
COc1ccc(Cl)cc1C(=O)NC1=NCCS1	-0.932
Cc1c(C(=O)N2CCN(c3ccccn3)CC2)sc2ncnc(N3CCN(c4ccccc4)CC3)c12	-32.8
Cc1nc2ccc(NC(=O)N3CCSCC3)cc2s1	16.3
